The record followed here is the RNAGym collection of RNA variant scans (doi:10.7554/elife.90254).

B1: LINE1-mini (parent)
chain: GGCAGAGCUCAACACAGCGUGGCAAAGUGGCUGUGGCUAGACUGCC

Read counts are not given, so values of variants with three or more changes are uncertain.

This series covers variants of B1. Briefly: self-cleavage, relative activity (ratio to wild type); higher = more cleavage; in vitro, sequencing; the parent is a self-cleaving ribozyme.
GGCAGAGCUCAACACAGCUCGGCAAGGUGGCUGUGGCUAGACUGCC: the self-cleavage was 0.34. As for GGCAGAGCUCAACACAGCUUGGCAAAGUGGCUGUGACUAUACUGCC, the figure is 0.08; as for GGCAGAGCUCAACACAGCUUAGCAAAGUGGCUGAGGCUAGACUGCC, 0.1. For GGCAGAGCUCAACACAGCUAGGCAAAGUGGGUGUGGCUAGACUGCC the value was 0.56; for GGCAGAGCUCAACACAGCUUGGCAAAGUGACUGUGGCUAUACUGCU, 0.19; for GGCAGAGCUCAACACAGCUUGGCCAAGUGCCUGUGGCUAGACUGCC, 1.02. Regarding GGCAGAGCUCAACACAGCUUGGCGAAGUGGAUAUCUCUAGACUGCC, the self-cleavage is 0.2. For GGCAGAGCUCAACACAGCCUGGCAAAGGGGCUAGGGCUAGACUGCC the value was 0.02. For GGCAGAGCUCAACACAGCUAGGCAAAGUGGCUGUGGCUAGACGGCC the value was 0.03.

For the variant GGCAGAGCUCAACACAGCCUGGCAAAGUGGCCGUGGCUAUACUGCC, the self-cleavage worked out at 0.1. Consider GGCAGAGCUCAACACAGCUUGGCAAAGUGGCUGUGGCUAUAAUGCC, for which the self-cleavage came out at 0.15. As for GGCAGAGCUCAACACAGCCUGGCAAAGUGGCUGAGGCUAGAUUGCC, the figure is 0.08; as for GGCAGAGCUCAACACAGCUUGGUAAUGUGGCUGUGGCUGGACUGCC, 0.04. For GGCAGAGCUCAACACAGCUAGGAAAAGUGGCUGUGGAUAGACCGCC the value was 0.02; for GGCAGAGCUCAACACAGCUUGGCAAAAUGGCUGUGGAUAGACAGCU, 0.01; for GGCAGAGCUCAACACAGCUUGGCAAAGUUGCUGUGGCUAGUCUGCC, 0.15.

For GGCAGAGCUCAACACAGCUUGACAAAGUGGCUCUGGCUAGACUGCC, the self-cleavage was 0.03. As for GGCAGAGCUCAACACAGCUUGGCAAAGUGGCUGUGGCUAAAUUGCC, the figure is 0.01. For GGCAGAGCUCAACACAGCUUGGCAAAGUGACCGUGGCUAGACUGCC the value was 0.11; for GGCAGAGCUCAACACAGCCUGGCAAAGAGGCUUUGGCUAGACUGCC, 0.11. Take GGCAGAGCUCAACACAGCUUGGCAAAAUGGCUGUGGAUCGACUGCC: the self-cleavage turned out to be 0.02.

As for GGCAGAGCUCAACACAGCUUGGCAAAGCGGCUGUGGUUAGACUGUG, the self-cleavage amounted to 0.04. With GGCAGAGCUCAACACAGCUUGGCAAGGUGGCUGUGGCUAGACAGCC, the self-cleavage was determined as 0.09.

On to GGCAGAGCUCAACACAGCCCGGCAAAGUGGCUGUGGCAAGACUGCC, for which the self-cleavage is 0.34. For GGCAGAGCUCAACACAGCUUGGCAAAGUGGCUGUUGCUAGAAUGCC the value was 0.05. As for GGCAGAGCUCAACACAGCUCAGCAAAGUGGCUGUGGCUUGACUGCC, the figure is 0.69; as for GGCAGAGCUCAACACAGCCUGGCAAAGUGGCUGAGACUAGACUGCC, 0.16.

On to GGCAGAGCUCAACACAGCUUGGCUAAGUGGCUGUGGCUAGACUGGC, for which the self-cleavage was determined as 0.5.

GGCAGAGCUCAACACAGCUUUGCCAAGUCGCUGUGGCUAGACUGAC: the self-cleavage came out at 0.04.

GGCAGAGCUCAACACAGCUUGGCAAAGUGCCUGUGGCCAGACUGCC: the self-cleavage is 0.06.

Turning to GGCAGAGCUCAACACAGCUUGGCAAAGUGGCUUUGGCUAGACUGAC, the self-cleavage amounted to 0.04. For the variant GGCAGAGCUCAACACAGCUUGGCAAAGUGGCUGUGGCUAGAGUUCC, the self-cleavage worked out at 0.01. Regarding GGCAGAGCUCAACACAGCUUGGCAAAGAGGCUGCGGCUAGACAGCC, the self-cleavage turned out to be 0.05. For GGCAGAGCUCAACACAGCCUGGCAAAGUGGCGGUGGCUAGGCUGCC the value was 0.05; for GGCAGAGCUCAACACAGCCUGGCAAAGUGGCGGUGGCUAGUCUGCC, 0.05; for GGCAGAGCUCAACACAGCCUGGCAAAGCGGCUGUGGCUAGAAUGCC, 0.06. For GGCAGAGCUCAACACAGCUUGGCAAAGUGGGUGUGGCAAGACUGCC, the self-cleavage was found to be 0.01. For GGCAGAGCUCAACACAGCUUGGCUAAGUGGCUGUUGCUAGACUGCC the value was 0.08; for GGCAGAGCUCAACACAGCUUGGCAAAGUGCCCAUGGCUAGACUGCC, 0.02; for GGCAGAGCUCAACACAGCUUGGCAAAGUGGCUGUGGUUAGACUACC, 0.1. For GGCAGAGCUCAACACAGCUCGGCAAAGUAGCUCUCGCUAGACUGCC the value was 0.02; for GGCAGAGCUCAACACAGCCGGGGAAAGUGGCUGUGGCUAGACUGCC, 0.23; for GGCAGAGCUCAACACAGCUUGGCAUAGUGGCUGUGUCUAGACUGCC, 0.02. As for GGCAGAGCUCAACACAGCUUGGCAAAGUGGGUGUUGCUAGACUGCC, the figure is 0.04. Regarding GGCAGAGCUCAACACAGCUUGGUGAAGUGGCUGUGGCUAUACUGCC, the self-cleavage is 0.25.

Consider GGCAGAGCUCAACACAGCUUGGAAAAGUGGCUGUGUCUAUACUGCC, for which the self-cleavage is 0.17. For GGCAGAGCUCAACACAGCUUGGCAAAGUGGGUGUGGCUAGAUUGCC, the self-cleavage was found to be 0.03. As for GGCAGAGCUCAACACAGCUUGGCAAAGUCGCUGUGGCUAAAAUGCC, the figure is 0; as for GGCAGAGCUCAACACAGCUUGGCAAGGUGGCUGUGGCUAGAGUGCC, 0.02. Consider GGCAGAGCUCAACACAGCUUGGCAAAAUUGCUGUUGUUAGACUGCC, for which the self-cleavage is 0.01. Consider GGCAGAGCUCAACACAGCUUGGCAAAGAGGCUGUGGCUGGACUGCC, for which the self-cleavage worked out at 0.1. For GGCAGAGCUCAACACAGCUAGCCAAAGUGGCUGUGGCUAGACUGCC the value was 0.59; for GGCAGAGCUCAACACAGCUUGCCUAAGUGGCUGUUGCUAGACUACC, 0.02; for GGCAGAGCUCAACACAGCUUGGCAAAGGGGCUGUGGCUAGAGUGCC, 0.01. For GGCAGAGCUCAACACAGCCCGGCAAAGUGGCUGUUGCUAGACUGCA the value was 0.08; for GGCAGAGCUCAACACAGCUUGGCAAAGUGUCCGUGGCUAGACUGCC, 0.23.
